# Results published in the supplement of paper PMC4604168 (melanoma cell lines).
# This is one part of the list. Many values rest on one well or one pass, so single values are uncertain.
# How the values were obtained:
# Experiment in all cases: cell count relative to DMSO control; melanoma cells; higher = more viable cells
# Settings in all cases: library dose: low library concentration; 72 h
# MZ2-MEL = tested on: MZ2-MEL
# MeWo = tested on: MeWo
# RPMI7951 = tested on: RPMI7951
# RVH-421 = tested on: RVH-421
# SkMel28 = tested on: SkMel28
# SkMel2 = tested on: SkMel2
# SkMel30 = tested on: SkMel30
# SkMel5 = tested on: SkMel5
# UACC257 = tested on: UACC257
# UACC62 = tested on: UACC62
# 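Further: cell number obtained by counting DAPI-stained nuclei in high-throughput microscope images with image analysis software, screen run in 1,536-well plates.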
SMILES,cell count (MZ2-MEL),cell count (MeWo),cell count (RPMI7951),cell count (RVH-421),cell count (SkMel28),cell count (SkMel2),cell count (SkMel30),cell count (SkMel5),cell count (UACC257),cell count (UACC62)
"CC(C)C[C@H](NC(=O)[C@H](Cc1ccccc1)NC(=O)c1cnccn1)B(O)O [Bortezomib] + COC(=O)c1sccc1S(=O)(=O)Nc1ccc(Nc2ccccc2)cc1OC [GSK0660] (first compound 0.001 µM, partner dose 1 µM)",78.4%,71.1%,57.5%,53.8%,85.6%,98%,79.5%,99.7%,56.9%,68.9%
"COc1ccc(C2=N[C@@H](c3ccc(Cl)cc3)[C@@H](c3ccc(Cl)cc3)N2C(=O)N2CCNC(=O)C2)c(OC(C)C)c1 [Nutlin-3] + C[C@@H]1CCN(C(=O)CC#N)C[C@@H]1N(C)c1ncnc2[nH]ccc12 [CP690550] (first compound 0.1 µM, partner dose 1 µM)",102%,93.6%,115%,87%,85.3%,99.3%,101%,88.1%,84.5%,88.6%
"CC(C)C[C@H](NC(=O)[C@H](Cc1ccccc1)NC(=O)c1cnccn1)B(O)O [Bortezomib] + Oc1cc(-c2nc(-c3ccccc3)[nH]c2-c2ccncc2)ccc1Cl [L779450] (first compound 0.001 µM, partner dose 0.2 µM)",77.2%,89.5%,85.8%,60.4%,68.6%,90.8%,90.4%,124%,74.7%,55.1%
"Cc1cn(-c2cc(NC(=O)c3ccc(C)c(Nc4nccc(-c5cccnc5)n4)c3)cc(C(F)(F)F)c2)cn1 [nilotinib] + CC(C)(C)c1cnc(CSc2cnc(NC(=O)C3CCNCC3)s2)o1 [SNS-032] (first compound 0.2 µM, partner dose 0.01 µM)",95.4%,119%,90.3%,72.1%,99.5%,97.1%,92.1%,99.2%,91.7%,86.1%
"CC(C)C[C@H](NC(=O)[C@H](Cc1ccccc1)NC(=O)c1cnccn1)B(O)O [Bortezomib] + COc1cc(N2CCC(N3CCN(C)CC3)CC2)ccc1Nc1ncc(Cl)c(Nc2ccccc2S(=O)(=O)C(C)C)n1 [NVP-TAE684] (first compound 0.001 µM, partner dose 0.08 µM)",90.4%,73.3%,82.5%,56.2%,61.6%,87.2%,72.3%,90.2%,53.8%,90.1%
"Cc1cc(Nc2cc(N3CCN(C)CC3)nc(/C=C/c3ccccc3)n2)n[nH]1 + COc1cc(Nc2ncc(F)c(Nc3ccc4c(n3)NC(=O)C(C)(C)O4)n2)cc(OC)c1OC [Tamatinib] (first compound 0.04 µM, partner dose 0.4 µM)",85%,86.4%,87.3%,90.6%,87.4%,92.5%,91%,87.3%,59.6%,92.2%
"Cc1cn(-c2cc(NC(=O)c3ccc(C)c(Nc4nccc(-c5cccnc5)n4)c3)cc(C(F)(F)F)c2)cn1 [nilotinib] + CC(C)CCN1c2nc(Nc3cc(F)c(O)c(F)c3)ncc2N(C)C(=O)C1C [BID1870] (first compound 0.2 µM, partner dose 0.2 µM)",97%,89.6%,102%,87.4%,80.1%,89.4%,78.8%,96.6%,85.4%,85.2%
"CC(C)C[C@H](NC(=O)[C@H](Cc1ccccc1)NC(=O)c1cnccn1)B(O)O [Bortezomib] + O=c1cc(-c2cccc3c2Sc2ccccc2S3)oc(N2CCOCC2)c1 [KU55933] (first compound 0.001 µM, partner dose 1 µM)",71.9%,76%,70.9%,70.1%,84.4%,101%,76%,101%,60.9%,77.3%
"COc1ccc(C2=N[C@@H](c3ccc(Cl)cc3)[C@@H](c3ccc(Cl)cc3)N2C(=O)N2CCNC(=O)C2)c(OC(C)C)c1 [Nutlin-3] + Cc1cc([N+](=O)[O-])ccc1NS(=O)(=O)c1cc(Cl)ccc1Cl [FH535] (first compound 0.1 µM, partner dose 1 µM)",107%,107%,105%,88.3%,91.5%,96.5%,89%,93.8%,87.4%,81.9%
"Cc1cc(Nc2cc(N3CCN(C)CC3)nc(/C=C/c3ccccc3)n2)n[nH]1 + O=C(O)C(=O)Nc1sc2c(c1C(=O)O)CCNC2 [TCS401] (first compound 0.04 µM, partner dose 1.66667 µM)",100%,87.7%,112%,107%,92.7%,98%,96.1%,80.7%,83.2%,90.5%
"COc1ccc(C2=N[C@@H](c3ccc(Cl)cc3)[C@@H](c3ccc(Cl)cc3)N2C(=O)N2CCNC(=O)C2)c(OC(C)C)c1 [Nutlin-3] + CC(C)(C)c1cnc(CSc2cnc(NC(=O)C3CCNCC3)s2)o1 [SNS-032] (first compound 0.1 µM, partner dose 0.01 µM)",97%,95.3%,97.8%,79.1%,78.9%,88.5%,105%,96.8%,62.8%,54.3%
"Cn1c(=O)n(-c2ccc(C(C)(C)C#N)cc2)c2c3cc(-c4cnc5ccccc5c4)ccc3ncc21 + CC(C)CCN1c2nc(Nc3cc(F)c(O)c(F)c3)ncc2N(C)C(=O)C1C [BID1870] (first compound 0.004 µM, partner dose 0.2 µM)",106%,98.8%,111%,106%,87.6%,94.1%,64.2%,108%,89.7%,70.5%
"COc1ccc(C2=N[C@@H](c3ccc(Cl)cc3)[C@@H](c3ccc(Cl)cc3)N2C(=O)N2CCNC(=O)C2)c(OC(C)C)c1 [Nutlin-3] + CCc1ccc(CCOc2ccc(CC3SC(=O)NC3=O)cc2)nc1 [pioglitazone] (first compound 0.1 µM, partner dose 2 µM)",97.4%,94%,110%,101%,84.9%,102%,90.2%,84.2%,98.7%,73.2%
"COc1ccc(C2=N[C@@H](c3ccc(Cl)cc3)[C@@H](c3ccc(Cl)cc3)N2C(=O)N2CCNC(=O)C2)c(OC(C)C)c1 [Nutlin-3] + C#Cc1cccc(Nc2ncnc3cc(OCCOC)c(OCCOC)cc23)c1 [erlotinib] (first compound 0.1 µM, partner dose 0.8 µM)",95.8%,104%,114%,83.8%,86.8%,106%,96.1%,,,80.6%
"Cc1cn(-c2cc(NC(=O)c3ccc(C)c(Nc4nccc(-c5cccnc5)n4)c3)cc(C(F)(F)F)c2)cn1 [nilotinib] + CC1(C)NC(=O)N(c2ccc([N+](=O)[O-])c(C(F)(F)F)c2)C1=O [nilutamide] (first compound 0.2 µM, partner dose 1 µM)",99.8%,92.8%,108%,78.4%,108%,93%,95.9%,94.2%,93.7%,96.6%
"COc1ccc(C2=N[C@@H](c3ccc(Cl)cc3)[C@@H](c3ccc(Cl)cc3)N2C(=O)N2CCNC(=O)C2)c(OC(C)C)c1 [Nutlin-3] + Cc1cc(Nc2cc(N3CCN(C)CC3)nc(/C=C/c3ccccc3)n2)n[nH]1 [ENMD2076] (first compound 0.1 µM, partner dose 0.04 µM)",99.8%,94.3%,90.8%,86.3%,93.4%,104%,84.2%,,,58.5%
"Cn1c(=O)n(-c2ccc(C(C)(C)C#N)cc2)c2c3cc(-c4cnc5ccccc5c4)ccc3ncc21 + COc1ccc2c(c1)CCC1C2CCC2(C)C(NCCCCCCN3C(=O)C=CC3=O)CCC12 [U73122] (first compound 0.004 µM, partner dose 0.4 µM)",106%,88.7%,67.8%,109%,90.5%,88.6%,78.4%,92.5%,102%,93.1%
"Cc1cc(Nc2cc(N3CCN(C)CC3)nc(/C=C/c3ccccc3)n2)n[nH]1 + O=C(O)c1ccc(-c2c[nH]c3ncc(-c4ccccc4)cc23)cc1C1CCCC1 [GSK650394] (first compound 0.04 µM, partner dose 0.16 µM)",96.1%,79.8%,110%,99.2%,76%,90.9%,117%,97.5%,81.3%,72.5%
"Cc1cc(Nc2cc(N3CCN(C)CC3)nc(/C=C/c3ccccc3)n2)n[nH]1 + CN(C)S(=O)(=O)c1ccc2c(c1)/C(=C/c1cc3c([nH]1)CCCC3)C(=O)N2 [SU6656] (first compound 0.04 µM, partner dose 0.4 µM)",101%,87.6%,106%,94.3%,83.4%,107%,92.4%,107%,113%,97.2%
"COc1ccc(C2=N[C@@H](c3ccc(Cl)cc3)[C@@H](c3ccc(Cl)cc3)N2C(=O)N2CCNC(=O)C2)c(OC(C)C)c1 [Nutlin-3] + c1cc(-c2cnn3cc(-c4ccc(OCCN5CCCCC5)cc4)cnc23)ccn1 [Dorsomorphin] (first compound 0.1 µM, partner dose 0.4 µM)",95%,90.5%,104%,99.8%,84.5%,101%,87.1%,88.3%,68.7%,102%
"COc1ccc(C2=N[C@@H](c3ccc(Cl)cc3)[C@@H](c3ccc(Cl)cc3)N2C(=O)N2CCNC(=O)C2)c(OC(C)C)c1 [Nutlin-3] + CCN(CC)CCCCNc1ncc2cc(-c3cc(OC)cc(OC)c3)c(NC(=O)NC(C)(C)C)nc2n1 [PD173074] (first compound 0.1 µM, partner dose 0.1 µM)",101%,102%,105%,74.1%,78.2%,97.4%,93.3%,80%,84.5%,72.9%
"Cn1c(=O)n(-c2ccc(C(C)(C)C#N)cc2)c2c3cc(-c4cnc5ccccc5c4)ccc3ncc21 + N#Cc1c(O)c2c(-c3ccc(-c4ccccc4O)cc3)csc2[nH]c1=O [A769662] (first compound 0.004 µM, partner dose 2 µM)",98.9%,90.9%,108%,93.4%,66.5%,93.5%,64.9%,103%,115%,99%
